92 compounds from PubChem BioAssay AID1159614 (National Center for Advancing Translational Sciences (NCATS), 2016) can be followed below.

In all, about 45,000 compounds went through this assay and about 65 (0.1%) were called active. The call rests on the fitted dose curve; in most records, active means well fitted activation curve with a large enough effect; inconclusive means small, poorly fitted or top-dose-only effect; inactive means no such curve, though single readings can be large or run the other way. The list shows a part of the results.

Chain of UniProt P54803 (P54803 whole entry, looked up): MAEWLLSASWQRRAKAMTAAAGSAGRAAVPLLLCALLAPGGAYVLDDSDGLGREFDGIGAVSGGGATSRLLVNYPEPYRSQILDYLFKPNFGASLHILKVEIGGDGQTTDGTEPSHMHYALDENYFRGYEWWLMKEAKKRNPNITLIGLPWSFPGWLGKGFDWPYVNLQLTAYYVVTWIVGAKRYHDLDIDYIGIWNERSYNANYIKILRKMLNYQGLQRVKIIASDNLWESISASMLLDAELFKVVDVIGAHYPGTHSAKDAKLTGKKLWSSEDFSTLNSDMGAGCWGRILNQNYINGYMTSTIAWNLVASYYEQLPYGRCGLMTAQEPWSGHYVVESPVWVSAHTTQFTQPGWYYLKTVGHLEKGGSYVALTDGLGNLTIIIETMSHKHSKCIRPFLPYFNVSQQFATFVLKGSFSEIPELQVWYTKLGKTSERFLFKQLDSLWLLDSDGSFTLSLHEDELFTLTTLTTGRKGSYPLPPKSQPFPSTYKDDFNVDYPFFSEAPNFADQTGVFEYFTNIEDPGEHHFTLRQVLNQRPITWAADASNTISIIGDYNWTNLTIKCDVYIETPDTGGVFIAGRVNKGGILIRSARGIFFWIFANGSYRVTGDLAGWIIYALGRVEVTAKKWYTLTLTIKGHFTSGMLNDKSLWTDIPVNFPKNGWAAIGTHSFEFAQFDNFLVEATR

In the assay the target is Galactocerebrosidase (Homo sapiens) (UniProt P54803). In words: A Novel Cell-Based Assay to Identify Small Molecules for B -Galactocerebrosidase. Further: 0% is about no effect; nearly all actives have a fitted effect of over 65% in size. The settings on record: 145M-Twi-hGALC-G270D cells (Twitcher mouse brain line with human GALC G270D), HMU-beta-Gal fluorescence, 48 h; series mostly up to 57.5 µM; activation: at the top concentration. The gist of the method:
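Live 145M-Twi cells (Twitcher mouse brain-derived, GALC-null) stably expressing human GALC-G270D, with a wild-type GALC line, were compound-treated. Residual GALC activity was then read as fluorescence from 0.1 mM final HMU-β-gal at pH 5.2; higher signal means activation.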
For the compound `O=C(CN1C(=O)COc2ccc(Cl)cc21)Nc1cccc(F)c1`, the “activation” value is inactive: -30%. The figure for `CCN(CC)c1ccc2cc(-c3nc(-c4cccs4)no3)c(=O)oc2c1` is inactive: -2.14%; for `CC(=O)c1ccc(N2CCN(C(=O)CCC(=O)Nc3ccc4nc(N5CCCCC5)cc(C)c4c3)CC2)cc1` it is inactive: -8.77%; for `CC1=C(C(=O)Nc2ccc(C)cc2C)C(c2ccc([N+](=O)[O-])cc2)n2ncc(C(=O)Nc3ccc(F)cc3)c2N1` (configuration not stated) it is inactive: 10.5%. The figure for `Cc1ccc(-n2c(=O)c3c(cnn3C)n(CC(=O)Nc3ccc(C)cc3C)c2=O)cc1` is inactive: -2.17%; for `COc1cc2c(Nc3ccc(Br)cc3F)ncnc2cc1OCC1CCN(C)CC1` it is inactive: -6.76%; for `Cc1c(C(=O)N2CCC(C)CC2)c(S(=O)(=O)NCc2ccc(Cl)cc2)c(C)n1C` it is inactive: -24.2%. The figure for `CN(c1ccc(F)cc1)S(=O)(=O)N1CCCC(C(=O)NCc2cccc(Br)c2)C1` (configuration not stated) is inactive: -15.4%; for `Cc1ccc(S(=O)(=O)N2CCCc3cc(NS(=O)(=O)c4cccc(Cl)c4)ccc32)cc1` it is inactive: -10.5%; for `COc1ccccc1NC(=O)CSc1nnc(NC(=O)Nc2ccc(C)cc2)s1` it is inactive: -12.5%.

For `COc1ccccc1CNC(=O)c1c(O)nc2c(C)cccn2c1=O`, the “activation” value is inactive: -14.6%. The figure for `CC1CCN(S(=O)(=O)c2ccc3c(c2)c(=O)c(C(=O)NCCc2ccccc2)cn3C)CC1` is inactive: -20.6%; for `COc1ccc(S(=O)(=O)NCCc2csc3nc(-c4cccc(C)c4)nn23)cc1F` it is inactive: -7.75%. In the case of `CCCCN1C(=O)c2[nH]nc(-c3ccccc3O)c2C1c1ccc(OCc2ccccc2)cc1` (configuration not stated) it was inactive: -8.69%; in that of `COc1ccccc1NC(=O)CCC(=O)N1CC(C)Oc2ccc(C)cc21` (configuration not stated), inactive: -5.68%; in that of `CCc1ccc(NC(=O)C2CCCN2S(=O)(=O)c2ccc3c(c2)n(C)c(=O)c(=O)n3C)cc1` (configuration not stated), inactive: -7.78%.

For the compound `COc1ccccc1CNC(=O)CN(C)c1nn2c(=O)cc(C)nc2s1`, the “activation” value was inactive: -9.5%. The figure for `CC(=O)c1ccc(NC(=O)CSc2nnc3ccc(-c4ccc(Br)cc4)nn23)cc1` is inactive: -22%; for `COC(=O)CN1C(=O)CSc2ccc(S(=O)(=O)Nc3ccc(C(C)=O)cc3)cc21` it is inactive: -13.4%. In the case of `CC1(C)OC[C@@H]2O[C@@]3(C(=O)O)OC(C)(C)O[C@H]3[C@@H]2O1` it was inactive: -11.9%; in that of `COc1ccc(NC(=O)Cn2c(=O)c3cc(Cl)ccc3n3nncc23)cc1`, inactive: -1.2%. Take `CCOc1ccc(C(=O)c2cn(CC(=O)Nc3ccc4c(c3)OCCO4)c3ccc(F)cc3c2=O)cc1`: the “activation” value is inactive: -3.18%. The figure for `CC(C)CCNS(=O)(=O)c1ccc(N2CCCCS2(=O)=O)cc1` is inactive: -7.01%; for `CC1CCN(C(=O)CSc2nnc(-c3ccccc3)o2)CC1` it is inactive: -1.1%; for `CN(C(=O)CSc1nc(C2CCCC2)nc2c1c(=O)n(C)c(=O)n2C)c1ccccc1` it is inactive: -29.7%. For `Cc1cccc(C)c1OC(=O)CSc1nnc(CNC(=O)c2ccccc2)o1`, the “activation” value was inactive: -7.07%. The figure for `Cc1cc(C)c(NS(=O)(=O)c2cc(-c3onc(C)c3C)ccc2C)c(C)c1` is inactive: -4.88%. On to `O=C(CN1CCCN(S(=O)(=O)c2ccc(Br)cc2)CC1)Nc1cccc(C(F)(F)F)c1`, for which the “activation” value was inactive: -9.73%. The figure for `Cc1ccc(NC(=O)c2cnc(SCC(=O)N3CCOCC3)n(C)c2=O)cc1C` is inactive: -17.2%. The figure for `CC1CCN(C(=O)c2ccc3c(c2)N(Cc2ccccc2)C(=O)c2ccccc2S3(=O)=O)CC1` is inactive: -12.2%; for `COc1ccc(-n2nnc(-c3nsc(NC(=O)c4ccc(C)c(C)c4)n3)c2C)cc1Cl` it is inactive: -4.7%; for `CCCc1nnc(NC(=O)Cc2coc3ccc(C(C)C)cc23)s1` it is inactive: 0.22%. Consider `O=C(CSc1oc(-c2ccccc2)nc1S(=O)(=O)c1ccc(Cl)cc1)NC1CCCCC1`, for which the “activation” value was inactive: 11.6%. `COCCCNC(=O)CSc1nc2cc3c(cc2c(=O)n1CCCCCC(=O)NCc1ccc(OC)cc1)OCO3`: the “activation” value is inactive: 4.37%. For the compound `CC(C)COC(=O)Cn1nnc2sc(-c3ccccc3)cc2c1=O`, the “activation” value was inactive: -1.15%. In the case of `COc1ccc(NC(=O)Cn2nnc(C(=O)NCc3ccc4c(c3)OCO4)c2N)cc1`, the “activation” value was inactive: -8.15%. In the case of `Cc1cccc(N2CCN(C(=O)c3ccc4c(Cl)c5c(nc4c3)CCCC5)CC2C)c1` (configuration not stated) it was inactive: -7.86%. In the case of `COc1ccccc1-c1noc(-c2ccc(NCc3ccco3)c([N+](=O)[O-])c2)n1` it was inactive: 10.1%. In the case of `O=C(Nc1cccc(C(F)(F)F)c1)c1cc(S(=O)(=O)N2CCCC2)c[nH]1` it was inactive: -14.4%; in that of `Cc1ccc2cccc(NC(=O)c3cccc4c(Cl)cccc34)c2n1`, inactive: -9.36%. With `Cc1ccc(C)c(N2CCN(C(=O)CCNS(=O)(=O)c3ccc4c(c3)CCN4C(=O)C3CC3)CC2)c1`, the “activation” value was inactive: -43%. In the case of `O=C(C1CCC(Cn2c(=O)c3sccc3n(Cc3ccccc3)c2=O)CC1)N1CCCCC1` (configuration not stated) it was inactive: -9.31%; in that of `CCN(Cc1ccccc1)Cc1c(O)ccc2c(=O)c(-c3ccc(Cl)cc3)coc12`, inactive: -10.4%. On to `Cc1ccc(-c2cc(-c3coc4ccc(Cl)cc4c3=O)c3c(n2)-c2ccccc2OC3)cc1`, for which the “activation” value is inactive: -5.55%. For `O=C(NCc1ccccc1Cl)c1cnc(N2CCOCC2)c2ccccc12`, the “activation” value is inactive: -4.71%. In the case of `COc1ccc(OC)c(NC(=O)CC2C(=O)NCCN2C(=O)C(F)(F)F)c1` (configuration not stated) it was inactive: -22.2%; in that of `CCOc1ccc(NC(=O)CCc2nc3cccnc3n2-c2ccccc2)cc1`, inactive: -17.4%; in that of `CCc1ccc(NC(=O)CSc2nc3c(oc4ccccc43)c(=O)n2-c2cccc(C)c2)cc1`, inactive: -10.7%. In the case of `O=C(Nc1nc2ccc(Cl)cc2s1)c1cc(=O)c2ccccc2o1` it was inactive: -8.09%; in that of `CCc1cccc(CC)c1NC(=O)C(Cc1ccccc1)NS(=O)(=O)c1cccc2nsnc12` (configuration not stated), inactive: -15.2%. As for `COc1ccc2c(c1)c(CC(=O)Nc1ccc(C(C)=O)cc1)c(C)n2C(=O)c1ccc(Cl)cc1`, the “activation” value is inactive: -15.2%. Turning to `COc1ccc(NC(=O)c2oc3ccccc3c2NC(=O)C23CC4CC(CC(C4)C2)C3)c(OC)c1`, the “activation” value was inactive: -7.39%. Turning to `Cc1ccc(NC(=O)c2oc3ccccc3c2NC(=O)c2ccc(F)c(F)c2)cc1`, the “activation” value is inactive: -6.53%.

In the case of `COc1ccc(S(=O)(=O)NCCS(=O)(=O)N2CCN(c3ccccc3)CC2)cc1OC`, the “activation” value is inactive: -8.46%. As to `CN1CCc2c(sc(NC(=O)CSc3ccc(F)cc3)c2-c2nc3ccccc3s2)C1`, the “activation” value is inactive: -13.4%. The figure for `COc1cccc(C(=O)NC(=NCCc2c[nH]c3ccc(OC)cc23)Nc2nc(C)cc(C)n2)c1` is inactive: 3.93%; for `CCN1C(C(=O)c2ccccc2)=C(OC(=O)COc2ccc(OC)cc2)c2ccccc2S1(=O)=O` it is inactive: -6.25%. `CC(C)CN(CCCNC(=O)c1cc(=O)[nH]c2ccc(S(=O)(=O)N3CCCC3)cc12)CC(C)C`: the “activation” value was inactive: 1.05%. In the case of `Cc1ccc(CNC(=O)CCCCCn2c(=O)c3sccc3n(CC(=O)Nc3ccc(C)c(F)c3)c2=O)cc1` it was inactive: -6.77%; in that of `Cc1ccc(NC(=O)c2ccc(CN3CCN(C)CC3)cc2)cc1Nc1nccc(-c2cccnc2)n1`, inactive: -14.2%; in that of `CCc1cnc2c(c1SCc1ccccc1C)c(=O)n(C)c(=O)n2C`, inactive: -12.7%. On to `Cc1cc(F)ccc1NC(=O)c1c(C)oc2c1C1=NCCN1C=N2`, for which the “activation” value was inactive: -7.93%. In the case of `O=C(NCc1ccc(Cl)cc1Cl)c1cccc(N2CCCS2(=O)=O)c1` it was inactive: -6.45%. The figure for `CCn1cc2nc(SCc3cccc(C(F)(F)F)c3)n(Cc3ccc(C)cc3)c(=O)c2n1` is inactive: -7.62%; for `COc1ccccc1-n1c(=O)n(C)c2c(C(N)=O)nc(-c3cc(OC)c(OC)c(OC)c3)nc21` it is inactive: 8.7%. The figure for `Cc1cc(C)c2c(N)c(C(=O)Nc3ccccc3C(F)(F)F)sc2n1` is inactive: -12%. `COc1cc2c(cc1NC(=O)C(C)Oc1ccccc1)oc1ccccc12` (configuration not stated): the “activation” value is inactive: -11%. In the case of `CCc1ccccc1NC(=O)CSc1nc2c(c(=O)[nH]1)CN(Cc1ccccc1OC)CC2`, the “activation” value was inactive: -10.4%. Consider `CCCSc1ncc(Cl)c(C(=O)N2CCN(c3ccc(OC)cc3)CC2)n1`, for which the “activation” value is inactive: -15.1%. The figure for `CN(C(=O)c1nn(C)c2c1CS(=O)(=O)c1ccccc1-2)c1cccc(Cl)c1` is inactive: -10.2%.

Turning to `COc1ccc(OC)c(NC(=O)COCc2cc(-c3ccc(F)cc3)on2)c1`, the “activation” value was inactive: -5.18%. As for `CCC1CN(C(=O)Nc2cc(Cl)ccc2C(=O)OC)c2ccccc2S1` (configuration not stated), the “activation” value was inactive: 0.367%. Regarding `Cc1ccc(N2C(=O)N(Cc3cccc(Cl)c3)c3ccccc3S2(=O)=O)cc1`, the “activation” value was inactive: 2.16%.

On to `Cc1ccc(C)c(Cn2c(=O)n(CCCC(=O)NCc3ccc4c(c3)OCO4)c(=O)c3sccc32)c1`, for which the “activation” value is inactive: -34.5%. The figure for `CCOC(=O)c1sc(N2C(=O)c3oc4ccc(F)cc4c(=O)c3C2c2ccc(O)cc2)nc1C` (configuration not stated) is inactive: -10.2%.

With `CCOC(=O)c1ccc(NC(=O)c2c(NCc3cccc(OC)c3OC)sc3c2CCC3)cc1`, the “activation” value was inactive: -3.95%. Take `CC(C)Oc1ccc(C(=O)N2CCCCC2CCN2CCCCC2)cc1` (configuration not stated): the “activation” value was inactive: -3.37%.

Take `COc1ccccc1NC(=O)Cn1c(=O)n(-c2ccc(C)cc2)c(=O)c2c1cnn2C`: the “activation” value was inactive: -16.4%. Turning to `CCOc1ccc(NC(=O)c2oc3ccccc3c2NC(=O)c2cc3ccccc3o2)cc1`, the “activation” value was inactive: -9.62%. Regarding `CCOC(=O)CSc1nc2cc3c(cc2c(=O)n1CCCCCC(=O)NCc1ccc(OC)cc1)OCO3`, the “activation” value is inactive: 1.35%. In the case of `CN(C)c1ccc(CNC(=O)c2ccc3nc(CCc4ccccc4)oc3c2)cc1` it was inactive: -16.9%; in that of `Cc1ccc(N2C(=O)CSC23C(=O)N(CC(=O)Nc2ccccc2F)c2ccccc23)cc1C` (configuration not stated), inactive: -25.6%. For `Cc1ccc(CNC(=O)c2ccc(CS(=O)(=O)c3ccccc3C)o2)cc1`, the “activation” value is inactive: -6.77%.

As to `COc1ccc(N2CCN(CCCNC(=O)c3ccc4nc(N5CCCCC5)sc4c3)CC2)cc1`, the “activation” value is inactive: -2.96%.

Regarding `Cc1ccc(/C=C/c2onc(C)c2S(=O)(=O)N2CCC(C(=O)N(CCC(C)C)Cc3ccco3)CC2)cc1`, the “activation” value was inactive: -8.73%. In the case of `CCc1cccc(NC(=O)CCNS(=O)(=O)c2ccc3c(c2)CCN3C(C)=O)c1` it was inactive: -18.6%; in that of `O=C(Nc1ccc(Br)cc1)c1cccc(S(=O)(=O)N2CCc3ccccc32)c1`, inactive: 7.08%; in that of `CC(C)(C)c1ccc(-c2nnc(-c3ccccc3NC(=O)c3ccc(F)cc3F)o2)cc1`, inactive: 2.61%. On to `COc1ccc(-n2nc(C(=O)Nc3cccc(Cl)c3)c3c4ccccc4n(C)c3c2=O)cc1Cl`, for which the “activation” value was inactive: -11%. As for `O=C(CSc1oc(-c2ccco2)nc1S(=O)(=O)c1ccc(Cl)cc1)Nc1ccc(F)cc1`, the “activation” value is inactive: -10.7%.

`CCCCCCC1CCC(C(=O)NC(C(=O)O)C(C)C)CC1` (configuration not stated): the “activation” value was inactive: -4.09%. In the case of `COc1ccc2c(Sc3ccc(Cl)cc3)c(C(=O)N3CCCCC3)[nH]c2c1` it was inactive: -30.2%.
